Test results as given in PubChem BioAssay AID504339 (National Center for Advancing Translational Sciences (NCATS), 2011).
The campaign covered roughly 390,000 compounds. About 17,000 (4.4%) were called active. The shares of active, inactive and inconclusive entries below differ from those in the screen. The call rests on the fitted dose curve; in most records, active means well fitted inhibition curve with a large enough effect; inconclusive means small, poorly fitted or top-dose-only effect; inactive means no such curve, though single readings can be large or run the other way. Potencies of inconclusive entries are doubtful fits and often do not repeat.

biological target: Lysine-specific demethylase 4A (Homo sapiens) (UniProt O75164); test: qHTS Assay for Inhibitors of JMJD2A-Tudor Domain; conditions: AlphaScreen JMJD2A-Tudor / H3K4me3 peptide binding; series mostly up to 114 µM; further: nearly all actives have a fitted effect of over 50% in size
Potency means the concentration at half of the fitted maximal effect; tags describe the fitted curve by direction and shape.

Chain of UniProt O75164 (O75164 whole entry, looked up, the tested form may be a part): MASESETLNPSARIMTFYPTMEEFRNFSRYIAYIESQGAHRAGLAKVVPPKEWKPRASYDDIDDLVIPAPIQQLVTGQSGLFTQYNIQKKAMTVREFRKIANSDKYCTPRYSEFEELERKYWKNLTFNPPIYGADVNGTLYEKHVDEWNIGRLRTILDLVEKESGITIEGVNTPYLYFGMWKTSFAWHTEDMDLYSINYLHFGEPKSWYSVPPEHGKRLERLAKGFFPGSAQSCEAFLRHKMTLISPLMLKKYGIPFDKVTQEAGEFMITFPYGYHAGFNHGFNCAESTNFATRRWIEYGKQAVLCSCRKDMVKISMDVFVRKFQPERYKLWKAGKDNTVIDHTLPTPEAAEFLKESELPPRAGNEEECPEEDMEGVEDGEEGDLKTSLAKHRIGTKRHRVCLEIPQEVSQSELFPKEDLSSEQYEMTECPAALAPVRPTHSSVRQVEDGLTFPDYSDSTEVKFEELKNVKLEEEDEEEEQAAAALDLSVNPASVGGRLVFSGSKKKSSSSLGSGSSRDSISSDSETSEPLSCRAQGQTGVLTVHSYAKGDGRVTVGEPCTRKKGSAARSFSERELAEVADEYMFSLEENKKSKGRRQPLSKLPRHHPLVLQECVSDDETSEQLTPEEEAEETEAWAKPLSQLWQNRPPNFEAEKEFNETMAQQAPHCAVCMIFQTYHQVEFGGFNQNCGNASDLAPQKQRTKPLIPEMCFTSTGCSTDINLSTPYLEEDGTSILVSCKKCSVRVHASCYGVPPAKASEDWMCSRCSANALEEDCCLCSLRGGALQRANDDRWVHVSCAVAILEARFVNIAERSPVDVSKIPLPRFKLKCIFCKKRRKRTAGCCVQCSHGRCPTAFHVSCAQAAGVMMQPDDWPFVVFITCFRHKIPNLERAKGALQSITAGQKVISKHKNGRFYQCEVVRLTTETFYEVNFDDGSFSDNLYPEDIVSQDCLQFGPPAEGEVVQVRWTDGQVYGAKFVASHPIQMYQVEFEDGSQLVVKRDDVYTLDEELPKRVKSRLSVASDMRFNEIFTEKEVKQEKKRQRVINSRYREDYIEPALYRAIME

Row | Structure (SMILES) | Potency
1 | Cc1cnc(C(=O)N2CCc3c([nH]c4ccccc34)C2c2ccc(F)cc2)cn1 (stereo not given) | inconclusive: 44.7 µM [inhibitor, partial curve]
2 | Cc1c(O)c(=O)c2ccccc2n1C | active: 22.4 µM
3 | CCOc1ccc(NCc2cccn2-c2nnc(N3CCC(C(=O)NCCCN4CC(C)CC(C)C4)CC3)s2)cc1 (stereo not given) | active: 39.8 µM
4 | Cc1ccn2c(Nc3ccc4c(c3)OCCO4)c(-c3ccccc3O)nc2c1 | inconclusive: 39.8 µM [inhibitor, partial curve]
5 | CCOc1cccc(CC(=O)N2CCc3c([nH]c4ccc(OC)cc34)C2c2ccc(F)cc2)c1OCC (stereo not given) | inconclusive: 7.94 µM [inhibitor, full curve]
6 | COc1ccc(-n2cnc3c(sc4nccc(N(C)C)c43)c2=O)cc1 | inconclusive: 89.1 µM [inhibitor, single point]
7 | COc1ccccc1N1CCN(C(CNC(=O)C(=O)NCc2cccnc2)c2cccnc2)CC1 (stereo not given) | inconclusive: 25.1 µM [inhibitor, full curve]
8 | CCC(=O)c1ccc(OCC(=O)Nc2nc(-c3cccnc3)cs2)cc1 | inconclusive: 28.2 µM [inhibitor, full curve, poor fit]
9 | Cc1ccccc1CNC(=O)CSc1nnc(C)c2c(C)n(-c3ccccc3)nc12 | inactive
10 | COc1ccccc1Nc1nc(N)nc(CCl)n1 | inactive
11 | O=C(OCC(=O)N1CCc2ccccc21)c1ccc[nH]c1=O | active: 14.1 µM
12 | Cc1cc(OCCn2ccnc2)ccc1C(C)C | active: 3.16 µM
13 | Nc1nc(Nc2ccccc2)nc(NCc2ccco2)c1[N+](=O)[O-] | inconclusive: 15.8 µM [inhibitor, full curve, poor fit]
14 | CCOc1ccc(C(=O)NCCSc2c(C)[nH]c3ccccc23)cc1OCC | inactive
15 | CCn1c(O)c(C=NC2CCCC(C)C2C)sc1=S (stereo not given) | inconclusive: 14.1 µM [inhibitor, full curve]
16 | N#C/C(=C\c1cccnc1)C(=O)Nc1ccccc1[N+](=O)[O-] | inconclusive: 70.8 µM [inhibitor, single point]
17 | COc1ccc(NC(=O)c2cc(S(=O)(=O)N3CCCC3)ccc2OC)cc1 | inconclusive: 20 µM [inhibitor, partial curve, poor fit]
18 | Cc1cc(C)c(NC(=O)CSc2nnc(Cc3cccn3C)n2-c2ccc(F)cc2)c(C)c1 | inconclusive: 89.1 µM [inhibitor, partial curve]
19 | Cc1cc(C(=O)OCC(=O)NCc2ccccc2)c2ccccc2n1 | inactive
20 | O=C(CNc1cccc2ccccc12)N/N=C/c1ccc(OC(=O)/C=C/c2ccco2)cc1 | inconclusive: 39.8 µM [inhibitor, partial curve]
21 | CCn1c(=O)cc(OCC(=O)N2CCN(c3cccc(C)c3C)CC2)c2ccccc21 | inconclusive: 89.1 µM [inhibitor, partial curve]
22 | O=C(CSc1ncnc2scc(-c3ccccc3)c12)N1CCN(Cc2ccc3c(c2)OCO3)CC1 | inconclusive: 44.7 µM [inhibitor, full curve]
23 | Nc1nn(-c2ccccc2)c(N)c1N=Nc1ccc2c(c1)OCO2 | active: 50.1 µM
24 | CC(=O)c1cccc(N(CC(=O)Nc2cc(C)cc(C)c2)S(C)(=O)=O)c1 | inconclusive: 3.98 µM [inhibitor, single point]

Row | Structure (SMILES) | Potency
25 | COc1ccc(-c2cc(NC(=O)c3cncn3-c3ccccc3)ccc2OC)cc1 | inconclusive: 56.2 µM [inhibitor, partial curve]
26 | O=C(Oc1c(CN2CCOCC2)cc(Cl)c2cccnc12)c1ccccc1Br | active: 39.8 µM
27 | O=[N+]([O-])c1cc(F)cc(F)c1Nc1cc(F)cc(F)c1 | active: 44.7 µM
28 | Cc1ccc(-n2nc(C)c3c2OC(N)=C(C#N)C3c2ccc(C)o2)cc1 (stereo not given) | active: 11.2 µM
29 | Fc1ccc(-n2c(-c3cc(C4CC4)[nH]n3)n[nH]c2=S)cc1Cl | active: 79.4 µM
30 | O=C(NC(=S)N(Cc1ccccc1)Cc1ccccc1)c1ccccc1F | inconclusive: 44.7 µM [inhibitor, partial curve]
31 | CCOc1ccccc1N(C)C(=O)c1cc2c(s1)-c1ccccc1OC2 | inactive
32 | c1ccc(CN2CCOCC2)nc1 | active: 11.2 µM
33 | COc1cnc(-c2ccccn2)nc1Sc1ccccc1Cl | inconclusive: 63.1 µM [inhibitor, partial curve, poor fit]
34 | CCOC(=O)N1CCN(C(=O)c2c(Cl)cnn2C)CC1 | inactive
35 | CCC(CC)c1nnc(NC(=O)c2cc([N+](=O)[O-])ccc2N2CCOCC2)s1 | inconclusive: 44.7 µM [inhibitor, partial curve, poor fit]
36 | CCOC(=O)N1CCN(C(=O)Cc2cccc3ccccc23)CC1 | inactive
37 | CCN(CC(=O)Nc1ccc(NC(C)=O)cc1)C(=O)c1ccc(COc2ccc(C(C)(C)C)cc2)cc1 | inconclusive: 70.8 µM [inhibitor, partial curve, poor fit]
38 | Cc1ccccc1C(=O)Nc1cc2c(cc1N1CCCCC1)n(C)c(=O)n2C | inconclusive: 35.5 µM [inhibitor, partial curve]
39 | COc1ccc(N2CCN(C(=O)c3ccc4c(c3)N(Cc3cccc(Cl)c3)C(=O)c3ccccc3S4(=O)=O)CC2)cc1 | inactive
40 | COc1ccc(C)cc1NC(=O)C(NCC(O)c1ccccc1)c1ccccc1 (stereo not given) | active: 10 µM
41 | CCn1c(CNS(=O)(=O)c2ccc(Br)cc2)n[nH]c1=S | active: 22.4 µM
42 | Cn1ccnc1Sc1ccc(C=O)cc1[N+](=O)[O-] | inconclusive: 100 µM [inhibitor, single point]
43 | COc1ccc(N2CCN(C(=O)Cn3c(=O)c4cccn4c4cccnc43)CC2)cc1 | inconclusive: 89.1 µM [inhibitor, single point]
44 | COc1ccccc1N1CCN(C(=O)c2ccc(CN3CCOCC3)cc2)CC1 | inactive
45 | C/C(=C\C(=O)c1cccnc1)Nc1ccc(C)c(C)c1 | inconclusive: 44.7 µM [inhibitor, partial curve]
46 | CCOC(=O)c1ccc(N2C(=O)CC(SCC(N)C(=O)OCC)C2=O)cc1 (stereo not given) | inconclusive: 89.1 µM [inhibitor, single point]
47 | COc1cc(C2SCCS2)cc(Br)c1Oc1ncccc1[N+](=O)[O-] | inconclusive: 28.2 µM [inhibitor, full curve]
48 | O=C(C1=C[C@H](c2csc3ccccc23)C[C@H](OCCCCO)O1)N1CCN(Cc2ccc3c(c2)OCO3)CC1 | inconclusive: 22.4 µM [inhibitor, full curve, poor fit]

Row | Structure (SMILES) | Potency
49 | COc1cccc(Nc2cc(C)nc3ccccc23)c1 | inconclusive: 89.1 µM [inhibitor, partial curve]
50 | Cc1c(Cl)cccc1NC(=O)CSc1ccc(-c2ccccn2)nn1 | inconclusive: 12.6 µM [inhibitor, partial curve, poor fit]
51 | Cc1ccc2nc(-c3ccc(F)cc3)c(NC(C)(C)CC(C)(C)C)n2c1 | inconclusive: 50.1 µM [inhibitor, partial curve]
52 | COc1cccc(CNC(=O)c2c(C)oc3ncnc(N4CCOCC4)c23)c1 | inconclusive: 56.2 µM [inhibitor, partial curve]
53 | COc1ccc(-c2csc(NC(=O)c3cccc(S(=O)(=O)N4CCN(C)CC4)c3)n2)cc1 | inconclusive: 22.4 µM [inhibitor, full curve]
54 | COc1ccc(N2CCN(C(=O)C3Cc4ccccc4N3C(C)=O)CC2)cc1 (stereo not given) | inactive
55 | Cc1ccnc(NS(=O)(=O)c2ccc(NC(=O)C3CCCCC3)cc2)n1 | inactive
56 | Cc1[nH]n(-c2ccccc2)c(=O)c1N=Nc1ccccc1C(=O)N1CCOCC1 | inconclusive: 44.7 µM [inhibitor, partial curve]
57 | C(=N\N(c1ccccc1)c1ccccc1)/c1ccc(N2CCOCC2)s1 | inconclusive: 28.2 µM [inhibitor, partial curve]
58 | COc1ccc(N2CCN(C(=O)CN(c3ccccc3)S(=O)(=O)c3ccc(OC)cc3)CC2)cc1 | active: 56.2 µM
59 | Cc1ccc(Cl)cc1N1CCN(S(=O)(=O)c2c(C)[nH]c(C)c2C(=O)N2CCCC2)CC1 | inconclusive: 56.2 µM [inhibitor, partial curve, poor fit]
60 | CCN1CCN(c2ccc(NC(=O)CCc3c(C)nc4c(-c5ccc(F)cc5)c(C)nn4c3C)cc2)CC1 | inconclusive: 31.6 µM [inhibitor, full curve]
61 | Cc1cc(C(=O)N2CCN(C/C=C/c3ccccc3)CC2)no1 | inactive
62 | CSc1ccccc1OCc1cc(C(=O)N2CCN(Cc3nccn3C)CC2)no1 | inconclusive: 79.4 µM [inhibitor, partial curve]
63 | COc1cccc(NC(=O)Cc2nnc(SCCOc3ccccc3)n2C)c1 | inactive
64 | Cc1cc(C)c(S(=O)(=O)N2CCCOC2CNC(=O)C(=O)NCCc2c[nH]c3ccccc23)c(C)c1 (stereo not given) | inconclusive: 50.1 µM [inhibitor, partial curve]
65 | CC(=O)Nc1sc2c(c1C(c1ccccn1)N1CCCC1)CCCC2 (stereo not given) | inconclusive: 31.6 µM [inhibitor, single point]
66 | Clc1ccc(OCc2cn3cccnc3n2)c2ncccc12 | inactive
67 | CN1CCN(/N=C/c2c3ccccc3c(Cl)c3ccccc23)CC1 | active: 39.8 µM
68 | COc1cc(NC(=S)NCCCN2CCOCC2)cc(OC)c1OC | inactive
69 | COCCN(CC(=O)Nc1cccc(C)c1C)C(=O)C1CCN(S(=O)(=O)c2ccccc2)CC1 | inconclusive: 28.2 µM [inhibitor, partial curve]
70 | CN(C)/C=C1\C(=O)ON=C1c1ccccc1 | inactive
